Experimental data as given in PubChem BioAssay (NCATS).
Where “and” joins values, the source holds several entries; their conditions need not be identical. Equal entries are not always repeated. The inconclusive results got no clear call from the source; some entries with a clear call stand among them for comparison. A potency beside an inconclusive call is a rough fit, not a confirmed value. Where a structure was tested more than once in an assay, its records may differ in their call. Calls of active or inactive are those of the source. Calls come from the whole dose curve; as a rule, active = well fitted cell-killing curve with a large enough effect; inconclusive = small, poorly fitted or top-dose-only effect, or effect the other way; inactive = no such curve, though single readings can be large or run the other way.
Potency is the fitted concentration of half-maximal effect; tags give direction and shape of the fitted curve.

Test: Viability qHTS for spleen associated tyrosine kinase inhibitor (SYKi) naive MV4-11 cells (AID 1963823); note: nearly all actives have a fitted effect of over 40% in size
Conditions: MV4-11 AML viability, CellTiter-Glo luminescence, 72 h; viability (% of control): at 45 µM (top of the series)
Procedure, shortened: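 Read-out: CellTiter-Glo luminescence. Exposure: 72 hr, 37 C, 5% CO2, 95% humidity. Cells: MV4-11 without SYK inhibitor history, 500/well, qHTS format.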
For `CNC1CN(c2ccc3c(=O)c(C(=O)O)cn(-c4nccs4)c3n2)CC1OC` (stereo not given), the Potency was active: 422 nM. For `Cn1c(=O)c2c(ncn2CC2OCCO2)n(C)c1=O`, the Potency was “inactive”. For `CC1NC(=O)C(Cc2c[nH]c3ccccc23)NC1=O` (stereo not given), the “viability (% of control)” value was inactive: 71.2%. For `CC(C)Nc1cccnc1N1CCN(C(=O)c2cc3cc(NS(C)(=O)=O)ccc3[nH]2)CC1`, the “viability (% of control)” value was inactive: 71.1%. With `COc1cc(N)c(Cl)cc1C(=O)NC1CCN(CCCOc2ccc(F)cc2)CC1OC` (stereo not given) the Potency was inconclusive: 23700 nM [cytotoxic, partial curve]. In the case of `C=C1C(=O)O[C@@H]2C(OC(=O)/C(C)=C\C)/C(C)=C\C(=O)/C=C(\C)C[C@H](O)[C@@H]12` (stereo not given in full), the Potency is reported as inconclusive: 1010 nM [cytotoxic, full curve]. With `Fc1ccc(-c2csc3ncnc(NCc4ccc5c(c4)OCO5)c23)cc1` the Potency was active: 1660 nM. For `O=c1cc(N2CCN(c3cccc(C(F)(F)F)c3)CC2)[nH]c(=O)n1C1CCCCC1`, the Potency was inconclusive: 23100 nM [cytotoxic, single point]. With `CC1(C)CC[C@]23CO[C@@]4(CCC5[C@@]6(C)CC[C@H](O[C@@H]7OC[C@H](O[C@@H]8O[C@H](CO)[C@@H](O)[C@H](O)[C@H]8O)[C@H](O)[C@H]7O[C@@H]7O[C@H](CO)[C@@H](O[C@@H]8O[C@H](CO)[C@@H](O)[C@H](O)[C@H]8O)[C@H](O)[C@H]7O)[C@@](C)(CO)C6CC[C@@]5(C)[C@]4(C)C[C@H]2OC2OCC(O)C(O)C2O)C3C1` (stereo not given in full) the Potency was active: 1950 nM. With `COc1ccc(CN2C(=O)C(=O)c3cc(S(=O)(=O)N4CCC[C@H]4COc4cccnc4)ccc32)cc1` the “viability (% of control)” value was inactive: 90.3%. In the case of `CCCCC1CCN(CCCC(=O)c2ccccc2C)CC1`, the Potency is reported as active: 16400 nM. In the case of `C=CC(C)(O)C(O)CC1C(C)(O)C(O)C(O)C2C(C)(C)CCCC21C` (stereo not given), the Potency is reported as inconclusive: 1610 nM [cytotoxic, partial curve, poor fit]. With `COC(=O)Nc1nc2ccc(C(=O)C3CC3)cc2[nH]1` the Potency was active: 1060 nM. With `CC(=O)NO` the Potency was inconclusive: 2990 nM [rising, single point]. In the case of `CC1=CC(=O)C(=C(C)C)CC2C1CCC2(C)O` (stereo not given), the “viability (% of control)” value is reported as inactive: 85.5%. For `CC1OC(OC2C(C)OC(OC3C(O)C(CO)OC(O[C@H]4CC[C@@]5(C)C(CC[C@]6(C)C5CC=C5C7[C@@H](C)[C@H](C)CC[C@]7(C(=O)O)CC[C@]56C(=O)O)C4(C)C)C3O)C(O)C2O)C(O)C(O)C1O` (stereo not given in full), the viability (% of control) was inactive: 75.5% [at 9.25 µM]. For `Cn1nc(-c2ccc(C(F)(F)F)cc2)nc2c(=O)n(C)c(=O)nc1-2`, the Potency was active: 3660 nM. With `Cc1cc(Nc2cc(N)ncn2)c(=O)n2c1C(=O)NC21CCCCC1` the Potency was inconclusive: 6450 nM [cytotoxic, partial curve]. For `CC1(C)C=Cc2c(ccc3c2[N+]([O-])=C2C3(O)CC34NC(=O)C5(CCCN5C3=O)CC4C2(C)C)O1` (stereo not given), the Potency was inconclusive: 15900 nM [cytotoxic, single point]. With `CC[C@H]1OC(=O)C[C@@H](O)[C@H](C)[C@@H](O[C@@H]2O[C@H](C)[C@@H](O)[C@H](N(C)C)[C@H]2O)[C@@H](CCN2C[C@H](C)C[C@H](C)C2)C[C@@H](C)C(=O)/C=C/C(C)=C/[C@@H]1CO[C@@H]1O[C@H](C)[C@@H](O)[C@@H](OC)[C@H]1OC` the “viability (% of control)” value was inactive: 68.2%. For `Cc1ccc(Sc2ccccc2N2CCNCC2)c(C)c1`, the Potency was inconclusive: 5900 nM [cytotoxic, full curve]. With `CC(C)=C1C[C@@]2(C)C(=CC1=O)CC[C@@H](O)[C@@H]2C` the “viability (% of control)” value was inactive: 68.3%. In the case of `CC1(C)NC2N(C1=O)c1ccccc1C2(O)CC(C(=O)O)n1cnc2ccccc2c1=O` (stereo not given), the Potency is reported as inconclusive: 6320 nM [cytotoxic, partial curve, poor fit]. For `CCCC(NC(=O)/C(C#N)=C/c1cccc(Br)n1)c1ccccc1` (stereo not given), the Potency was active: 13000 nM. In the case of `CC(C)(C)Sc1c(CC(C)(C)C(=O)O)n(Cc2ccc(Cl)cc2)c2ccc(OCc3ccc4ccccc4n3)cc12`, the Potency is reported as “inactive and active: 16.6 µM”. In the case of `C=CCNC1=C2C[C@@H](C)C[C@H](OC)[C@H](O)[C@@H](C)/C=C(\C)[C@H](OC(N)=O)[C@@H](OC)/C=C\C=C(/C)C(=O)NC(=CC1=O)C2=O`, the Potency is reported as active: 590 nM. For `CC(=O)c1ccc(O[C@@H]2OC[C@@H](O)[C@H](O)[C@H]2O[C@]2(CO)O[C@H](CO)[C@@H](O)[C@@H]2O)c(O)c1`, the “viability (% of control)” value was inactive: 90.7% [at 17.3 µM]. With `Cc1ccc(-c2nn(C(C)(C)C)c3ncnc(N)c23)cc1` the Potency was active: 3660 nM. For `O=C(O)c1cccc(C(=O)CCC2OC(n3cnc4c(=O)[nH]cnc43)C(O)C2O)c1` (stereo not given), the “viability (% of control)” value was inactive: 69.1% [at 17.3 µM]. In the case of `COC(=O)CC1OC(C)C2=C(O)c3c(O)cccc3C(=O)C23OC13` (stereo not given), the Potency is reported as active: 1140 nM. With `N#Cc1cc2cc(CN3CCC(Nc4ncnc5sc(CC(F)(F)F)cc45)CC3)c(O)cc2n1Cc1cn[nH]c1` the Potency was active: 742 nM. For `O=C(NCC(=O)N1CCCC1)Nc1ccc2cnccc2c1`, the Potency was inconclusive: 1.2 nM [rising, full curve, poor fit]. For `CC(=O)NCCCCn1c2c(c3ccccc31)C(=O)NCC2`, the “viability (% of control)” value was inactive: 61.9%. In the case of `CNC(=O)[C@H]1O[C@@H](n2cnc3c(NCc4cccc(I)c4)nc(Cl)nc32)[C@H](O)[C@@H]1O`, the Potency is reported as active: 14800 nM. For `CC(=O)O[C@@H]1[C@@H](O)[C@H](C)O[C@@H](O[C@H]2[C@@H]3C=CO[C@@H](O[C@@H]4O[C@H](CO)[C@@H](O)[C@H](O)[C@H]4OC(C)=O)[C@@H]3[C@@]3(CO)O[C@@H]23)[C@@H]1OC(=O)/C=C/c1ccc(O)cc1`, the Potency was inconclusive: 1720 nM [cytotoxic, single point]. For `CC(C)=CCC/C(C)=C/CO[C@@H]1O[C@H](CO)[C@@H](OC(=O)/C=C/c2ccc(O)cc2)[C@H](O[C@@H]2O[C@@H](C)[C@H](O)[C@@H](O)[C@H]2O)[C@H]1O`, the Potency was inconclusive: 2430 nM [cytotoxic, partial curve, poor fit]. For `Cc1ccnc(NC(=O)C(C)c2cccc(C(=O)c3ccccc3)c2)c1` (stereo not given), the Potency was inconclusive: 11600 nM [cytotoxic, partial curve]. For `C[C@@H]1O[C@@H](O[C@H]2[C@@H]3C=CO[C@@H](O[C@@H]4O[C@H](CO)[C@@H](O)[C@H](O)[C@H]4O)[C@@H]3[C@@]3(CO)O[C@@H]23)[C@H](OC(=O)/C=C/c2ccc(O)c(O)c2)[C@H](O)[C@H]1O`, the “viability (% of control)” value was inactive: 54.4% [at 17.3 µM]. With `C/C=C(\C)C(=O)OC1C2(O)CC3=C4CC(=O)OC(c5ccoc5)C4(C)CCC3C(C)(C2=O)C(C(OC(C)=O)C(=O)OC)C1(C)C` (stereo not given) the Potency was inconclusive: 9680 nM [cytotoxic, single point]. In the case of `COC(=O)[C@]1(C)CCC[C@@]2(C)C(=O)CC[C@H]3C(=O)C=C(CC[C@@H]21)C3O` (stereo not given in full), the Potency is reported as inconclusive: 3.2 nM [rising, full curve, poor fit].
